In all, about 110,000 compounds were measured (“z-score”: median about -0.1, highest 2% from about 2 on). This is one part of the list. Calls of active or inactive are those of the source.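 The calls were made as follows: active = z-score in the third read window above 3 or below -3; inactive = the rest.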
The compounds below were run against Metabotropic glutamate receptor 8 (Rattus norvegicus) (UniProt P70579) (assay: rat mGluR8 modulators via GIRK flux, primary screen, cell-based, thallium flux, HTS (AID 488969)). Conditions: HEK293 rat mGluR8, GIRK (G protein-gated inwardly rectifying potassium channel) thallium flux, FluoZin2; at 10 µM; stronger effect = higher value; submaximal glutamate (EC20) added with thallium.
Chain of UniProt P70579 (P70579 whole entry, looked up): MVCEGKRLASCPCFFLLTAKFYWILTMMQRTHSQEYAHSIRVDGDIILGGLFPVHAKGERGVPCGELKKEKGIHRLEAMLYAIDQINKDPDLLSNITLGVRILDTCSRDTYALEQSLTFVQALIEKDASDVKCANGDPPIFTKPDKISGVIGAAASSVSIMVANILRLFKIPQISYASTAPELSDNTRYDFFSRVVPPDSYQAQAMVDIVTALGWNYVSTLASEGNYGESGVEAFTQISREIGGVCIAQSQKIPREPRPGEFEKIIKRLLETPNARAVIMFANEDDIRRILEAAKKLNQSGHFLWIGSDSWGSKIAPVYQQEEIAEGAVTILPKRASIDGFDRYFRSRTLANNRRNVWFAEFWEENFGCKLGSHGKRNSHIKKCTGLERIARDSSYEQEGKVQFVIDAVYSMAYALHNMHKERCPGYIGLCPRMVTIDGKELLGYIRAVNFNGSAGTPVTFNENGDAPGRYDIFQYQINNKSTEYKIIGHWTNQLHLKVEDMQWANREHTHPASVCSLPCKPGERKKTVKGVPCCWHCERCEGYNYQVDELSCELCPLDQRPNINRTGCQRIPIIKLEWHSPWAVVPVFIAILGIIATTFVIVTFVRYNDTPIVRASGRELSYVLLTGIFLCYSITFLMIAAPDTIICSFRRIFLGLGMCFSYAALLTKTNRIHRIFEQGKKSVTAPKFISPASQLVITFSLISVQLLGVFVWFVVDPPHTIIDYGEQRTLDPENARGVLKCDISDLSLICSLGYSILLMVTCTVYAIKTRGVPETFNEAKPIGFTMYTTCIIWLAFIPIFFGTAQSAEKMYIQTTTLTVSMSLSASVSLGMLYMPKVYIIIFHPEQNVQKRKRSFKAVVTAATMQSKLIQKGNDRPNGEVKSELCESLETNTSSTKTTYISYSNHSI

| Structure (SMILES) | z-score |
| --- | --- |
| CCOC(=O)c1ccc(N2C(=O)CC(Sc3nc(O)c(CC)c(=O)[nH]3)C2=O)cc1 (centres undefined) | 0.325 |
| Cc1ccccc1-n1c(SCC(=O)N/N=C/c2sccc2C)nc2ccccc2c1=O | 0.0265 |
| O=C(CSc1ncccn1)N1CCN(C(c2ccccc2)c2ccccc2)CC1 | -0.203 |
| O=c1c2ccccc2nc(SCc2nnc(-c3ccccc3Br)o2)n1-c1ccccc1 | 0.207 |
| CC(=O)/C(C#N)=C1\NC(=O)C(Cc2ccccc2Cl)S1 (centres undefined) | -0.674 |
| Cc1c(C(=O)Nc2ccc(Cl)cc2)c2ccccn2c1C(=O)c1ccc([N+](=O)[O-])cc1 | -0.0709 |
| COc1ccccc1NS(=O)(=O)c1cc(NC(=O)c2ccc3ccccc3n2)ccc1Cl | 0.029 |
| Cc1ccc(S(=O)(=O)/C(C#N)=C/c2c(N3CC(C)OC(C)C3)nc3ccccn3c2=O)cc1 (centres undefined) | -0.347 |
| N#Cc1cc2cc3c(cc2nc1N1CCOCC1)OCO3 | -0.918 |
| Cc1ccc(S(=O)(=O)CCc2nc3ccccc3s2)cc1C | -0.169 |
| COc1ccc2[nH]c3c(NCc4ccco4)ncnc3c2c1 | -0.887 |
| COc1ccc(-c2cc(C(F)(F)F)nc(S(=O)(=O)CCC(=O)N3CCOCC3)n2)cc1 | -0.771 |
| COc1ccc(S(=O)(=O)NNC(=O)C2Cc3c(ccc4ccccc34)O2)cc1 (centres undefined) | 0.13 |
| Cc1cc2nc(C3CCN(Cc4nnnn4Cc4ccccc4)CC3)[nH]c2cc1C | -1.67 |
| c1ccc(C2C3=C(CCCC3)Nc3ncnn32)cc1 (centres undefined) | -0.438 |
| CCOC(=O)c1sc(Nc2nc3c(OC)cccc3s2)cc1C | -0.137 |
| Cc1ccc(SCCC(=O)NC(C)(C)C)cc1 | 0.0122 |
| COc1ccc(CN(CCC(c2ccc(F)cc2)C2CCOC(C)(C)C2)C(=O)c2ccco2)cc1 (centres undefined) | 0.164 |
| Cc1cc(C)cc(OCC(=O)Nc2ccccc2C(=O)NCc2ccco2)c1 | 0.274 |
| N#CCCn1cc(/C=N/O)c(-c2ccc(-c3ccccc3)cc2)n1 | 1.03 |
| COc1ccccc1OCCCn1c(=O)oc2ccccc21 | -0.179 |
| CCOc1cccc(-c2nnc3sc(C4CCCCC4)nn23)c1 | 0.148 |
| CCOC(=O)c1c(C)n(C)c2ccc(OC)c(NS(=O)(=O)CC)c12 | 0.0365 |

| Structure (SMILES) | z-score |
| --- | --- |
| Cc1ccc(-c2nc3ccccc3s2)cc1NC(=O)c1cc(-n2cnnc2)ccc1Cl | -0.032 |
| COC(=O)c1nn(-c2ccccc2)c(Sc2ccc(Cl)cc2)c1/C=N/O | -0.169 |
| Cc1cc(C)c2c3c(sc2n1)C(=O)N(C)CC(=O)N3 | 0.459 |
| Cc1ccc(-c2nc(Nc3ccccc3)n[nH]2)cc1 | -0.123 |
| CCOC(=O)C1CCCN(c2cc(NCCCO)c([N+](=O)[O-])c3nonc23)C1 (centres undefined) | -0.307 |
| C=CCN(CC=C)CCOc1ccccc1F | -0.272 |
| CCOC(=O)c1cnc2c(-c3ccc(Cl)cc3)c(C)nn2c1N | -1.38 |
| CC(C)C(CC(=O)N1CCCCC1)C1CCOC(C)(C)C1 (centres undefined) | 0.287 |
| COc1ccccc1-c1cn[nH]c(=S)n1 | 0.189 |
| CC(=O)OCCSc1c(-c2ccccc2)c2cc(Cl)ccc2[nH]c1=O | -1.07 |
| CCOc1nc(NCCN2CCOCC2)nc(NC(C)C)n1 | -0.384 |
| O=S(=O)(NCc1cccnc1)c1ccc(Br)s1 | -0.234 |
| Cc1ccccc1Nc1nc(N)nc(COC(=O)c2cccc(S(=O)(=O)N(C)C)c2)n1 | -0.0942 |
| CCS(=O)(=O)N1CCN(C(=O)COc2ccc(-c3ccccc3)cc2)CC1 | -0.0325 |
| CC(=O)Nc1ccc(S(=O)(=O)N2CCSC2c2ccc(Cl)cc2)cc1 (centres undefined) | 0.38 |
| CCOC(=O)c1[nH]cnc1C(=O)NC(C)C | 0.0987 |
| c1ccc(-c2nnc3sc(-c4csc5c4CCCC5)nn23)cc1 | 0.282 |
| COc1cccc(CNC(=O)C2CCCN(S(=O)(=O)c3cccc4nonc34)C2)c1 (centres undefined) | 1.17 |
| COCCOC(=O)C1=C(C)NC(=O)NC1/C=C/c1ccccc1 (centres undefined) | -0.343 |
| COc1ccc(Cc2noc(-c3ccc(OC)c(OC)c3)n2)cc1OC | -0.675 |
| Cc1ccnc(SCc2cc(=O)c(OC(=O)c3cc([N+](=O)[O-])ccc3Cl)co2)n1 | -0.36 |
| CN=C1c2cc3cc(OC)ccc3n2CCN1Cc1ccccc1 | -0.00303 |
| COc1ccc(OC)c(S(=O)(=O)NCCc2ccccc2)c1 | -0.698 |

| Structure (SMILES) | z-score |
| --- | --- |
| CCOC(=O)CN(c1cccc(C(C)=O)c1)S(C)(=O)=O | -0.191 |
| CCCS(=O)(=O)NCCc1cc2ccc(C)cc2[nH]c1=O | -0.174 |
| Oc1ccc(-c2csc(-c3ccccc3)n2)cc1O | 0.76 |
| COc1ccc(CCCC(=O)O)c(C)c1 | 0.887 |
| Cc1ccccc1OCC(=O)Nc1sc2c(c1C#N)CCC2 | 0.36 |
| O=C(CCn1c(SCC(=O)c2ccccc2)nc2ccccc2c1=O)NCc1ccc(F)cc1 | -0.152 |
| COc1ccc(CN2CCCCCC2)c(C)c1C | 1.28 |
| O=c1oc2cc(OCc3ccc(F)cc3F)ccc2cc1-c1ccc2ccccc2n1 | -0.209 |
| CC(C)CNC(=S)N1CCC(NC(=O)C23CC4CC(CC(C4)C2)C3)CC1 | -0.322 |
| Cc1cccc(C(=O)Nc2ccccc2SCC(=O)Nc2ccc(C)c(Cl)c2)c1 | -0.11 |
| C/C(=N\Nc1ncc(Cl)cc1Cl)c1ccc(OC(F)F)cc1 | 0.811 |
| O=C(/C=C/c1ccccc1)Nn1c(-c2cccs2)nc2ccccc2c1=O | 0.0595 |
| Cc1[nH]c(-c2ccc3c(c2)OCO3)nc1C(=O)O | 0.148 |
| Cc1ccc(NC(=O)C(C)N2C(=O)c3ccccc3C2=O)cc1 (centres undefined) | 0.881 |
| Cc1ccccc1NC(=O)COc1nsnc1N1CCOCC1 | 0.0232 |
| Brc1ccc(C2=Nc3cccc4cccc(c34)N2)o1 | -0.424 |
| CCn1ncc(C2=NOC(C(=O)Nc3cccc(C(C)=O)c3)C2)c1C (centres undefined) | 0.517 |
| CC(=O)Nc1ccc(-c2nnc(SCc3ccccc3C#N)n2C)cc1 | 0.0291 |
| CCn1c(CNC(=O)Cc2ccc(OC)cc2)nnc1SCC(=O)NC1CCCCC1 | -0.13 |
| O=[N+]([O-])c1cccc(/C=N\N2CCN(c3ccc(Cl)cc3)CC2)c1 | 0.00676 |
| O=C(Cc1c[nH]c2ccccc12)N1CCc2ccccc21 | -0.341 |
| Nn1cnn(Cc2ccccc2)c1=S | -0.356 |
| O=C(O)c1cc([N+](=O)[O-])ccc1N1CCC(Cc2ccccc2)CC1 | 0.148 |

| Structure (SMILES) | z-score |
| --- | --- |
| COc1ccc(CCNc2nnc(Sc3nnnn3-c3ccccc3)s2)cc1OC | -0.0199 |
| Cc1ccc(Cl)cc1NC(=O)c1ccc(CSc2nnnn2C)cc1 | -0.0888 |
| CCOC(=O)c1cc2cc3ccccc3cc2[nH]1 | 0.0164 |
| COc1ccccc1NC(=O)Cn1cnc2c(oc3ccccc32)c1=O | -0.641 |
| O=[N+]([O-])c1ccc(Cl)cc1Sc1cccc2cccnc12 | -0.0801 |
| COC(=O)C1=C(C)N=C2SC(C)C(=O)N2C1/C=C/c1ccccc1 (centres undefined) | -0.126 |
| COC(=O)[C@H](Cc1ccccc1)NC(=O)N1CC(C)OC(C)C1 (some centres undefined) | -0.23 |
| O=C(COC(=O)c1cccc(Br)c1)NCCc1ccc(F)cc1 | -0.113 |
| CC1CN(C(=O)CCn2c(=O)oc3ccccc32)CC(C)O1 (centres undefined) | -0.248 |
| N#Cc1cc2c(=O)n3ccccc3nc2n(Cc2cccnc2)c1=N | 0.0145 |
| Cn1nnnc1SCCNC/C=C/c1ccccc1 | 0.661 |
| COc1ccc2c(c1OC)C(=O)OC2Nc1nc(-c2cc3cc([N+](=O)[O-])ccc3oc2=O)cs1 (centres undefined) | 0.478 |
| CCc1nc(C)cn1S(=O)(=O)c1cc(C)c(OC)cc1C | 0.289 |
| Cc1ccc(NC(=O)COC(=O)c2cccc3c2C(=O)c2ccccc2C3=O)c(C)c1 | -0.443 |
| O=c1c2ccccc2nc(COc2ccccc2)n1/N=C/c1c[nH]c2ccccc12 | -0.533 |
| CCOC(=O)C1=C(N)N(c2ccccc2Oc2ccccc2)C(=O)C1 | 0.16 |
| COc1ccc(-c2nnc3ccc(SCC(=O)N4CCCC4)nn23)cc1 | -0.183 |
| O=C(NCc1ccc(Cl)cc1)C1=Cc2cc(Cl)ccc2OC1 | -0.178 |
| CS(=O)(=O)N(Cc1ccccc1)c1ccc(C(=O)NCCSCc2ccco2)cc1 | -0.246 |
| CC1=[N+](C)N(c2ccccc2)C(=O)C1N=Cc1ccc(Cl)cc1 (centres undefined) | 0.872 |
| CCc1ccc(Nc2nnc(SC3CCOC3=O)s2)cc1 (centres undefined) | -0.427 |
| CCSC1=C(C#N)C(c2ccc(F)cc2)CC(=O)N1 (centres undefined) | -0.55 |
| CC(C)NC(=O)c1cccc(Br)c1 | -0.0557 |

| Structure (SMILES) | z-score |
| --- | --- |
| O=C1c2ccccc2C(=O)C12OC2c1cccc2ccccc12 (centres undefined) | -0.179 |
| COC(=O)/C(=C/c1ccc(OC)cc1)NC(=O)c1ccco1 | 0.209 |
| Cc1ccc(NC(C)c2cc(Cl)ccc2O)cc1 (centres undefined) | 1.51 |
| CN1CCN(CCC(=O)Nc2ccc(OCc3ccccc3)cc2)CC1 | -0.0231 |
| CCCCc1nccn1CCn1ccnc1CCCC | 0.548 |
| Cc1ccc(NC(=O)C2(NC(=O)c3ccccn3)CCCCC2)cc1Br | -0.308 |
| CCOC(=O)c1c(C)[nH]c(=S)c(C#N)c1-c1ccc(Cl)cc1 | active: 3.4 |
| O=C1CC(NCc2ccc3c(c2)OCO3)C(=O)N1Cc1ccc2c(c1)OCO2 (centres undefined) | 1.09 |
| COc1cc(C(=O)Sc2ccc(C)cc2)cc(OC)c1OC | -0.0868 |
| Cc1onc(-c2ccccc2Cl)c1C(=O)Nc1nc2ccc(S(C)(=O)=O)cc2s1 | -0.0827 |
| COCc1[nH][nH]c(=O)c1C=Nc1ccccc1 | -0.0992 |
| CC1CC(C)CN(c2nc3c(c(=O)n(C)c(=O)n3C)n2C)C1 (centres undefined) | -0.18 |
| O=C(Oc1ccc(Br)cc1C(=S)N1CCCC1)c1ccccc1F | 0.691 |
| Cc1ccc(NC(=O)CNc2cccc(C)c2C)c(C)c1 | -0.024 |
| Cc1cccc(OCCCC(=O)NC(C)c2ccccc2)c1 (centres undefined) | -0.0747 |
| O=C(N/N=C/C=C\c1cccc([N+](=O)[O-])c1)c1ccccn1 | 0.0774 |
| CCOC(=O)N1CCN(C(=O)CSCc2ccc(C)cc2)CC1 | 0.222 |
| O=C(CN1C(=O)C2C3C=CC(C3)C2C1=O)Nc1nc2ccccc2[nH]1 (centres undefined) | 0.113 |
| CC(=O)c1ccc(C(=O)Nc2ccc(N3CCOCC3)cc2)cc1 | 0.613 |
| Cn1cnnc1SCNC(=O)C(F)(F)F | 0.792 |
| O=C(OC(C(=O)NCc1ccco1)C(OC(=O)c1ccccc1)C(=O)NCc1ccco1)c1ccccc1 (centres undefined) | 1.26 |
| CCOc1ccc(C(=O)Nc2c(C(N)=O)oc3ccccc23)cc1 | 0.19 |

Source: PubChem BioAssay AID488969 (Vanderbilt High Throughput Screening Facility, 2010)
